{"source": "PubChem BioAssay AID686971", "about": "(National Center for Advancing Translational Sciences (NCATS), 2013)", "note": "The campaign covered roughly 360,000 compounds. About 7,500 (2.1%) were called active. This list was built around the results that the source calls inconclusive (neither active nor inactive); the mix of calls is not that of the screen. Calls come from the whole dose curve; as a rule, active = well fitted cell-killing curve with a large enough effect; inconclusive = small, poorly fitted or top-dose-only effect, or effect the other way, or another doubt; inactive = no such curve, though single readings can be large or run the other way. No potency is given beside an inconclusive call; the fits are too rough. Potency is the fitted concentration of half-maximal effect; tags give direction and shape of the fitted curve.", "data": [{"assay": "qHTS for induction of synthetic lethality in tumor cells producing 2HG: qHTS for the HT-1080-IDH1KD cell line;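 for activity, negative = toxicity: 0% = DMSO wells and -100% = cell-free medium wells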", "settings": "HT-1080 IDH1 knockdown viability, ATP luminescence, 48 h; activity, negative = toxicity: at 46.1 µM (top of the series) unless noted", "how_it_was_run": "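Assay cells: HT-1080 with IDH1 knockdown, 750 per well, RPMI/5% FBS. Exposure: 48 h at 37 °C following 2 h pre-incubation. Read: CellTiter-Glo luminescence; fitted concentration-response, curve class assigned.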", "values": [{"smiles": "COC(=O)c1cn(C(=O)c2ccccc2Cl)c2ccccc12", "Potency": "inconclusive [cytotoxic, single point]"}, {"smiles": "COc1ccc(-c2ccc(Nc3ccc(S(=O)(=O)N4CCCC4)cc3)nn2)cc1OC", "Potency": "inconclusive [cytotoxic, single point]"}, {"smiles": "N#CCCN1CCN(C(=O)c2c(N)no[n+]2[O-])CC1", "activity, negative = toxicity": "inactive: 12.1%"}, {"smiles": "Cc1cccc(NC(=O)CSCC(=O)N(CCC(C)C)c2c(N)n(Cc3ccccc3)c(=O)[nH]c2=O)c1", "Potency": "inconclusive [cytotoxic, partial curve, poor fit]"}, {"smiles": "CCOC(=O)c1ccc(OCCOc2ccccc2C)cc1", "activity, negative = toxicity": "inactive: 2.64%"}, {"smiles": "COCCN1CCN(c2cc(-c3ccccc3)nc3cc(-c4cccc(F)c4)nn23)CC1", "Potency": "inconclusive [cytotoxic, partial curve]"}, {"smiles": "COc1ccc(NC(=O)CCN(c2ccc(OC)cc2)S(=O)(=O)c2ccc(C)c(C)c2)cc1", "activity, negative = toxicity": "inactive: -2.94%"}, {"smiles": "COc1ccc2cc(C(=O)/C=C/c3cc(OC)c(OC)c(OC)c3)ccc2c1", "Potency": "inconclusive [cytotoxic, single point]"}, {"smiles": "Cc1cc(C(=O)Nc2nc3c(s2)CCCC3)cs1", "Potency": "inconclusive [cytotoxic, single point]"}, {"smiles": "C#CCNC(=O)C[C@@H]1C[C@@]2(C(=O)OC)CCCCC=C2N(Cc2cccc3ccccc23)C1=O", "Potency": "inconclusive [cytotoxic, single point]"}, {"smiles": "Cc1ccc2c(c1)-c1c(ssc1=S)C(C)(C)N2C(=O)c1ccco1", "Potency": "inconclusive [cytotoxic, single point]"}, {"smiles": "Cc1ccc2nc(-c3ccncc3)c(NC3CCCCC3)n2c1", "activity, negative = toxicity": "inactive: 11.9%"}, {"smiles": "CCN(CC)C(=O)c1cc(-c2ccc3c(c2)OCO3)on1", "activity, negative = toxicity": "inactive: 2.47%"}, {"smiles": "Cc1ccc(CNC(=O)Nc2nnc([C@H]3C[C@H](O)[C@@H](CO)O3)s2)cc1", "Potency": "inconclusive [rising, single point]"}, {"smiles": "O=C1c2cccc(OCc3ccc(F)cc3)c2CCN1Cc1ccc(F)cc1", "Potency": "inconclusive [cytotoxic, single point]"}, {"smiles": "COc1ccc(N2CCN(C(=O)Cc3ccc(OC)c(OC)c3)CC2)cc1", "activity, negative = toxicity": "inactive: -16.1%"}, {"smiles": "O=C(N/N=C/c1c(O)n(-c2ccccc2Cl)c(=O)c2ccccc12)c1cccnc1", "Potency": "active: 9.2 µM"}, {"smiles": "CCCCNC(=O)C[C@@H]1C[C@@]2(C(=O)OCC)CCC=C2N(Cc2ccc(Cl)cc2Cl)C1=O", "Potency": "inconclusive [cytotoxic, single point]"}, {"smiles": "Cc1ccc(-n2c(C3CC3c3ccc(Cl)cc3)n[nH]c2=S)cc1", "note": "(stereo not drawn)", "Potency": "inconclusive [cytotoxic, full curve]"}, {"smiles": "COc1cccc(-c2cnc3c(NC=O)cc(-c4ccc(OC)cc4OC)cn23)c1", "Potency": "inconclusive [cytotoxic, full curve, poor fit]"}, {"smiles": "Nc1ccc(C(=O)N/N=C/c2cn(Cc3ccccc3)c3ccccc23)cc1", "Potency": "inconclusive [cytotoxic, single point]"}, {"smiles": "COc1ccccc1CNC(=O)COC(=O)C1CCN(S(=O)(=O)c2c(Cl)cccc2Cl)CC1", "activity, negative = toxicity": "inactive: -4.11%"}, {"smiles": "CCN(CC)S(=O)(=O)c1cccc(NC(=O)COC(=O)c2cncc(Br)c2)c1", "activity, negative = toxicity": "inactive: 4.09%"}, {"smiles": "Cc1cc(C)c2nc(N(CCN(C)C)C(=O)c3ccc4ccccc4c3)sc2c1", "Potency": "inconclusive [cytotoxic, single point]"}, {"smiles": "Cc1ccc(-c2c(C#N)c(N)n3c(nc4ccccc43)c2C#N)cc1", "Potency": "inconclusive [cytotoxic, partial curve]"}, {"smiles": "Cc1ccc(-c2nnn(CC(=O)N(c3cccc(F)c3)C(C(=O)NC3CCCC3)c3ccco3)n2)o1", "note": "(stereo not drawn)", "Potency": "active: 2.82 µM"}, {"smiles": "CC(C)NC(=O)CSc1nc2ccccc2n1CC(=O)N1CCc2ccccc21", "activity, negative = toxicity": "inactive: 1.01%"}, {"smiles": "Cc1ccc(-c2cnc(C3CC3)o2)cc1S(=O)(=O)Nc1ccccc1", "Potency": "inconclusive [cytotoxic, single point]"}, {"smiles": "CC(C)NC(=O)c1ccc(NC(=O)CC2SC(N3CCCCC3)=NC2=O)cc1", "note": "(stereo not drawn)", "activity, negative = toxicity": "inactive: 0.322%"}, {"smiles": "Cc1ccc(-c2ccc(S(=O)(=O)NCC3CCCO3)cc2)cc1", "note": "(stereo not drawn)", "Potency": "inconclusive [cytotoxic, single point]"}, {"smiles": "CC(c1ccccc1)N1CCn2c(nc3cc(NC(=O)NC4CCCCC4)ccc32)C1", "note": "(stereo not drawn)", "Potency": "inconclusive [cytotoxic, single point]"}, {"smiles": "FC(F)(F)c1ccc(NC(=S)NC2CCCCC2)cc1", "Potency": "inconclusive [cytotoxic, single point]"}, {"smiles": "CN1CCN(CC#CCn2c3ccccc3c3ccccc32)CC1", "Potency": "inconclusive [cytotoxic, single point]"}, {"smiles": "CC(=O)CC1c2cc(F)ccc2C=C(c2ccsc2)N1c1ccc(-c2cccnc2)cc1", "note": "(stereo not drawn)", "Potency": "inconclusive [cytotoxic, single point]"}, {"smiles": "CC1(C(=O)Nc2ccc3c(c2)OCO3)CCN1C(=O)Cc1ccc(-c2ccccc2)cc1", "note": "(stereo not drawn)", "Potency": "inconclusive [cytotoxic, full curve]"}, {"smiles": "Cc1ccc(NC(=O)C2C3CCC(O3)C2C(=O)O)cc1Cl", "note": "(stereo not drawn)", "Potency": "inconclusive [cytotoxic, single point]"}, {"smiles": "CCOC(=O)C1=CCN(S(=O)(=O)c2ccccc2F)C1c1cccc(Br)c1", "note": "(stereo not drawn)", "Potency": "inconclusive [cytotoxic, single point]"}, {"smiles": "CC(=O)N1CCOCCOCCN(C(C)=O)CCOCC1", "activity, negative = toxicity": "inactive: 12%"}, {"smiles": "CCOC(=O)C1=C(COC(=O)/C=C/c2ccc(OC)c(OC)c2)NC(=O)NC1C", "note": "(stereo not drawn)", "activity, negative = toxicity": "inactive: 9.25%"}, {"smiles": "Cc1cccc(NC(=O)CN2CCN(CC(=O)NCc3ccc(Cl)cc3Cl)CC2)c1C", "activity, negative = toxicity": "inactive: 10.8%"}, {"smiles": "COCC(=O)n1nc(-c2ccccc2)nc1NCc1cccs1", "Potency": "inconclusive [rising, partial curve]"}, {"smiles": "CC(C)CCN1CCC(N)=NC1=O", "activity, negative = toxicity": "inactive: 13.6%"}, {"smiles": "Cc1ccccc1CC1(CO)CCCN(Cc2ccccc2Cl)C1", "note": "(stereo not drawn)", "activity, negative = toxicity": "inconclusive: -32% [cytotoxic]"}, {"smiles": "Nc1ccccc1SSc1ccccc1N", "Potency": "active: 23.1 µM"}, {"smiles": "CCc1nnc(NC(=O)c2nc(S(=O)(=O)Cc3ccc(C)cc3)ncc2Cl)s1", "Potency": "active: 14.6 µM"}, {"smiles": "Cc1cc(C)n(-c2cc(N3CCN(C(=O)c4cccc(F)c4)CC3)ccc2[N+](=O)[O-])n1", "activity, negative = toxicity": "inactive: 1.12%"}, {"smiles": "CC(C)CNS(=O)(=O)c1ccc(CCC(=O)N2CCN(Cc3ccc4c(c3)OCO4)CC2)cc1", "activity, negative = toxicity": "inactive: -24.9%"}, {"smiles": "CN(Cc1ccccc1)C(=S)NC(=O)c1ccc(-c2ccccc2)cc1", "activity, negative = toxicity": "inconclusive: -30.8% [cytotoxic]"}, {"smiles": "CCn1c2ccccc2c2cc(NC(=O)c3cccc([N+](=O)[O-])c3)ccc21", "Potency": "inconclusive [cytotoxic, partial curve]"}, {"smiles": "COc1cc(C2C(C#N)=C(N)N(Nc3ccccc3)C3=C2C(=O)CC(C)(C)C3)ccc1OCc1ccccc1", "note": "(stereo not drawn)", "Potency": "inconclusive [cytotoxic, partial curve]"}, {"smiles": "CCOc1ccccc1N1CCN(c2ncnc3scc(-c4ccc(OC)cc4)c23)CC1", "Potency": "inconclusive [cytotoxic, single point]"}, {"smiles": "Cc1ccc(C(=O)c2cc([N+](=O)[O-])ccc2N2CC(C)OC(C)C2)cc1", "note": "(stereo not drawn)", "Potency": "inconclusive [cytotoxic, single point]"}, {"smiles": "CC(=O)Nc1cccc(-c2cc(NC(C)=O)c3ncc(-c4ccc(F)cc4)n3c2)c1", "Potency": "inconclusive [cytotoxic, single point]"}, {"smiles": "COc1ccc(/C=C2\\Sc3ccc(C(=O)NCc4cccnc4)cc3N(C)C2=O)cc1OC", "Potency": "active: 23.1 µM"}, {"smiles": "COc1ccc(C(=O)NC(=S)NNC(=O)COc2ccccc2)cc1", "Potency": "inconclusive [cytotoxic, single point]"}, {"smiles": "Cc1ccc(C(=O)NC(C#N)=C(Cl)Cl)cc1", "Potency": "active: 20.6 µM"}, {"smiles": "Cc1nc2cc(-c3ccc(Cl)cc3)nn2c(C)c1CCC(=O)NC(C)c1ccc2c(c1)OCCO2", "note": "(stereo not drawn)", "Potency": "inconclusive [cytotoxic, single point]"}, {"smiles": "c1ccc(-c2ccc(-c3nc(-c4ccncc4)no3)cc2)cc1", "Potency": "inconclusive [rising, single point]"}, {"smiles": "COc1ccc(C(=O)CSC2=C(C#N)C3(CCCCC3)C(C#N)=C(N)N2)cc1", "Potency": "inconclusive [cytotoxic, single point]"}, {"smiles": "CN(CC(=O)Nc1ccc(Cl)c(C(F)(F)F)c1)C(=O)CC1Sc2ccccc2NC1=O", "note": "(stereo not drawn)", "activity, negative = toxicity": "inactive: -12.1%"}, {"smiles": "CC(C)(C)c1ccc(C(=O)NCC(=O)N2CCC3(CC2)NCCc2[nH]cnc23)cc1", "activity, negative = toxicity": "inactive: -3.63%"}, {"smiles": "O=C(Nc1cccc(Cl)c1)C1C2CCC3C(CCC21)C3(Cl)Cl", "note": "(stereo not drawn)", "Potency": "inconclusive [cytotoxic, single point]"}, {"smiles": "Cc1[nH]c2ccccc2c1C(=O)/C=C\\c1ccccc1Cl", "Potency": "inconclusive [cytotoxic, single point]"}, {"smiles": "OC(c1cccc(F)c1)c1ncc(-c2ccc(C(F)(F)F)cc2)[nH]1", "note": "(stereo not drawn)", "Potency": "inconclusive [cytotoxic, single point]"}, {"smiles": "Cc1ccc(SCCNC(=O)c2ccc(C)c(S(=O)(=O)Nc3cccc(C)c3)c2)cc1", "Potency": "inconclusive [cytotoxic, single point]"}, {"smiles": "CC(C)CNC(=O)[C@H](Cc1ccccc1)NC(=O)c1cccs1", "activity, negative = toxicity": "inactive: -1.94%"}, {"smiles": "C=CCC[C@H](Cc1ccc(F)cc1)C(=O)OC[C@H](Cc1c[nH]c2ccccc12)NC(=O)[C@@H](CC=C)CC(=O)N[C@H](CO)Cc1ccccc1", "Potency": "active: 18.4 µM"}, {"smiles": "CC(C)(C)OC(=O)N1CCC(NC(=O)c2[nH]cnc2C(=O)N[C@@H](Cc2ccccc2)C(=O)OCc2ccccc2)CC1", "Potency": "inconclusive [cytotoxic, partial curve]"}]}]}
